{"source": "paper PMC4336329", "about": "(PLoS ONE, 2015)", "note": "Out of some 310,000 compounds screened, about 2,200 (0.71%) showed an effect of 50% or more. Effects have a minus sign here. The list shows a part of the results."}
{"target": "human ether-à-go-go-related gene (hERG) potassium channel (human, UniProt Q12809)", "sequence (Q12809 whole entry, looked up)": "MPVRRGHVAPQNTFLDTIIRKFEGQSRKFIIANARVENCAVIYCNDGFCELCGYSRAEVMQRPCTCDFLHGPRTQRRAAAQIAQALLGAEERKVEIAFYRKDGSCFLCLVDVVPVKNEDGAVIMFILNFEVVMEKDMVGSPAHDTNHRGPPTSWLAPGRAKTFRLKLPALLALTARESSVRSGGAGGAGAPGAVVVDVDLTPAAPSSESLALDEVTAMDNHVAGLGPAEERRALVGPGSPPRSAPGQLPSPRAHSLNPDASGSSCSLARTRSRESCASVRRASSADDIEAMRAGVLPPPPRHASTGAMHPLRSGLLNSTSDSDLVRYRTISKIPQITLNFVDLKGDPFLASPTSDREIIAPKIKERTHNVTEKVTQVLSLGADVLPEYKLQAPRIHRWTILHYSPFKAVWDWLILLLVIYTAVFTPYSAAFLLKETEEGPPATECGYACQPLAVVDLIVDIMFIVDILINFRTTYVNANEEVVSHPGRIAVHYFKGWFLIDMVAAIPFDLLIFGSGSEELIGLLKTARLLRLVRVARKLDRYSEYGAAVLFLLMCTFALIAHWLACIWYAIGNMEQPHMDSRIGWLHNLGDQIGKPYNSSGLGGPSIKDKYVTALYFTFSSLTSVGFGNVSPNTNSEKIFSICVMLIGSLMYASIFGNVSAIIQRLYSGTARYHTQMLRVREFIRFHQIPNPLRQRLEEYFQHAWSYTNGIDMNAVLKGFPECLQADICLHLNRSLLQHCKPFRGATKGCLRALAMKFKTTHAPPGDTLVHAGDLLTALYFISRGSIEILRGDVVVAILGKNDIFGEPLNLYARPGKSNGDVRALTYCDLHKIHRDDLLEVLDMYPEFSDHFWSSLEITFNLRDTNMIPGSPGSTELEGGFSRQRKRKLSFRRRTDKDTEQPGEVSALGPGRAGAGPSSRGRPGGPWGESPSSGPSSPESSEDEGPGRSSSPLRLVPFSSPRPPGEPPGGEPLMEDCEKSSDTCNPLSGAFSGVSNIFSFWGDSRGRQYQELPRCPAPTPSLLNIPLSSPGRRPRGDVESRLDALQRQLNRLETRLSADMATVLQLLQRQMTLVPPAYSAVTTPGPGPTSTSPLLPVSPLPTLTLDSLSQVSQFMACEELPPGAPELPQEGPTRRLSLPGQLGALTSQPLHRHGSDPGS", "test": "primary screen, population patch clamp on CHO cells stably expressing hERG", "units": {"hERG current change (%, negative = inhibition) at 1uM": "%"}}
{"molecule": "O=C(NC(=O)c1ccc(C(F)(F)F)cc1)Nc1ccc(-c2cnco2)cc1", "hERG current change (%, negative = inhibition) at 1uM": 14.1}
{"molecule": "O=C(NCc1cccs1)C1CCCN(S(=O)(=O)c2cccs2)C1", "note": "(stereo not drawn)", "hERG current change (%, negative = inhibition) at 1uM": 6.35}
{"molecule": "O=C(CSc1nnc(-c2cccnc2)n1Cc1ccco1)c1ccc(Cl)c(Cl)c1", "hERG current change (%, negative = inhibition) at 1uM": -12.2}
{"molecule": "COCc1cc(=O)n2[nH]c(-c3cccc(Br)c3)cc2n1", "hERG current change (%, negative = inhibition) at 1uM": -10.1}
{"molecule": "c1ccc2c(c1)OCC(CNCC1COc3ccccc3O1)O2", "note": "(stereo not drawn)", "hERG current change (%, negative = inhibition) at 1uM": 12}
{"molecule": "CN1CCSc2ccc(C(=O)NCc3ccccc3F)cc21", "hERG current change (%, negative = inhibition) at 1uM": 5.81}
{"molecule": "Cc1cccc(NC(=O)Cn2cnc3c(oc4nc5c(cc43)COC(C)(C)C5)c2=O)c1", "hERG current change (%, negative = inhibition) at 1uM": -14.6}
{"molecule": "Cc1c(NC(=O)NC(C)N2C(=O)C3C4C=CC(C4)C3C2=O)c(=O)n(-c2ccccc2)n1C", "note": "(stereo not drawn)", "hERG current change (%, negative = inhibition) at 1uM": 12.8}
{"molecule": "CCOc1ccc(S(=O)(=O)n2ccc(C)n2)c2ccccc12", "hERG current change (%, negative = inhibition) at 1uM": 9.46}
{"molecule": "COC(=O)C1(C(C[N+](=O)[O-])c2ccco2)C(=O)NCC1c1ccccc1", "note": "(stereo not drawn)", "hERG current change (%, negative = inhibition) at 1uM": 13.2}
{"molecule": "CC(C)C[C@H](NC(=O)OC(C)(C)C)C(=O)N1CCC(C(=O)N[C@@H](Cc2ccccc2)C(=O)O)CC1", "hERG current change (%, negative = inhibition) at 1uM": 11.5}
{"molecule": "O=C(O)Cn1c(=O)c(-c2ccccc2)nc2ccccc21", "hERG current change (%, negative = inhibition) at 1uM": 28.8}
{"molecule": "CN=C(NC#N)SCC(=O)c1ccc(Cl)cc1Cl", "hERG current change (%, negative = inhibition) at 1uM": 7.76}
{"molecule": "CCOC(=O)N1CCC(=NNc2ccc(S(=O)(=O)N3CCOCC3)cc2[N+](=O)[O-])CC1", "hERG current change (%, negative = inhibition) at 1uM": 0.353}
{"molecule": "CCS(=O)(=O)N1CCC(NC(=O)c2cc(OC)cc(OC)c2)CC1", "hERG current change (%, negative = inhibition) at 1uM": 13}
{"molecule": "COCCNC(=O)C(C(=O)c1ccc(F)cc1)n1cc(C)ccc1=O", "note": "(stereo not drawn)", "hERG current change (%, negative = inhibition) at 1uM": 10.9}
{"molecule": "OCC[C@H]1C[C@@H](O)[C@H](O)[C@@]2(CCCCO2)O1", "hERG current change (%, negative = inhibition) at 1uM": -0.629}
{"molecule": "O=C(NCCc1ccccc1)N1CCCC(CNS(=O)(=O)Cc2ccccc2)C1", "note": "(stereo not drawn)", "hERG current change (%, negative = inhibition) at 1uM": 8.57}
{"molecule": "CC1CCCCN1S(=O)(=O)c1ccc2[nH]c(=O)cc(C(=O)NCCCN3CCCCCC3)c2c1", "note": "(stereo not drawn)", "hERG current change (%, negative = inhibition) at 1uM": 18}
{"molecule": "COc1ccc(NC(=O)c2ccc(-c3ccc(-c4noc(C)n4)cc3C)cc2)cc1N1CCN(C)CC1.Cl", "hERG current change (%, negative = inhibition) at 1uM": -5.02}
{"molecule": "Cc1cc(C)c(S(=O)(=O)NCCc2ccccc2)c(C)c1", "hERG current change (%, negative = inhibition) at 1uM": 5.12}
{"molecule": "Cc1ccc(NC(=O)[C@H](NC(=O)[C@@H]2Cc3ccccc3CN2)c2ccccc2)cc1C", "hERG current change (%, negative = inhibition) at 1uM": 7.14}
{"molecule": "O=C(CSc1nc(Nc2ccccc2)nc(N2CCOCC2)n1)NC1CCCCC1", "hERG current change (%, negative = inhibition) at 1uM": 8.9}
{"molecule": "COc1cccc(CNC(=O)CSCC(=O)Nc2ccc(C)cc2)c1", "hERG current change (%, negative = inhibition) at 1uM": 5.58}
{"molecule": "CCCN(c1ccccc1C(=O)O)S(=O)(=O)c1ccc2c(c1)n(C)c(=O)n2C", "hERG current change (%, negative = inhibition) at 1uM": 13.3}
{"molecule": "O=C(CNC(=O)c1ccccc1Br)N/N=C/c1ccccc1O", "hERG current change (%, negative = inhibition) at 1uM": 14.3}
{"molecule": "O=C(Nc1cccc(F)c1)N1CC=C(n2c(=O)[nH]c3ccccc32)CC1", "hERG current change (%, negative = inhibition) at 1uM": 11.4}
{"molecule": "Cl.FC(F)(F)c1ccc2c(c1)N(CCCN1CCN(CCCl)CC1)c1ccccc1S2", "hERG current change (%, negative = inhibition) at 1uM": -0.159}
{"molecule": "CCN1C(=O)C2(C(C#N)=C(N)Oc3n[nH]c(C(C)C)c32)c2ccccc21", "note": "(stereo not drawn)", "hERG current change (%, negative = inhibition) at 1uM": 9.08}
{"molecule": "Oc1ccc(-c2n[nH]c(=S)n2-c2ccc3c(c2)OCCO3)cc1", "hERG current change (%, negative = inhibition) at 1uM": 11.7}
{"molecule": "COc1ccc2c(c1)c(C(=O)CN1CCc3ccccc3C1)c(C)n2C", "hERG current change (%, negative = inhibition) at 1uM": 8.04}
{"molecule": "CN(C)S(=O)(=O)Nc1cc(F)cc(F)c1", "hERG current change (%, negative = inhibition) at 1uM": 13.9}
{"molecule": "COc1ccccc1OCc1ccc(C(=O)NCC(C)C)o1", "hERG current change (%, negative = inhibition) at 1uM": -2.81}
{"molecule": "COc1ccc(/C=C/C(=O)c2ccc(O)cc2)cc1", "hERG current change (%, negative = inhibition) at 1uM": 12.3}
{"molecule": "COc1ccc(NC(=O)CN2C(=O)/C(=C3\\SC(=S)N(C4CCS(=O)(=O)C4)C3=O)c3ccccc32)cc1", "note": "(stereo not drawn)", "hERG current change (%, negative = inhibition) at 1uM": 11.1}
{"molecule": "O=C(CSc1ccc(-c2ccccc2)nn1)N1CCN(c2ccccc2)CC1", "hERG current change (%, negative = inhibition) at 1uM": 12.7}
{"molecule": "Cc1cc(-n2ccnc2)n2c(nc3ccccc32)c1C#N", "hERG current change (%, negative = inhibition) at 1uM": 15.3}
{"molecule": "CCN(Cc1ccc2c(c1)OCCO2)C(=O)CSc1nc(C)nc2sc(C)c(C)c12", "hERG current change (%, negative = inhibition) at 1uM": 0.539}
{"molecule": "O=C(NC1CCCCC1)C(c1ccc2ncccc2c1)N(Cc1ccc2c(c1)OCO2)C(=O)c1cccs1", "note": "(stereo not drawn)", "hERG current change (%, negative = inhibition) at 1uM": 2.23}
{"molecule": "CC(C)(C)c1ccc(C(=O)NCCC(=O)NCc2cccs2)cc1", "hERG current change (%, negative = inhibition) at 1uM": 7.44}
{"molecule": "COc1ccc(C(CNC(=O)C(C)c2ccc3cc(OC)ccc3c2)N(C)C)cc1", "note": "(stereo not drawn)", "hERG current change (%, negative = inhibition) at 1uM": 12.7}
{"molecule": "CCCOC(=O)C1=C(C)NC2=C(C(=O)CCC2)C1c1cccc(OC)c1OC", "note": "(stereo not drawn)", "hERG current change (%, negative = inhibition) at 1uM": -3.44}
